Data: paper PMC4336329 (PLoS ONE, 2015)
The campaign covered roughly 310,000 compounds. About 14,000 (4.5%) showed an effect of 50% or more. Effects have a minus sign here. The list shows a part of the results.

Each compound was assayed against human ether-à-go-go-related gene (hERG) potassium channel (human, UniProt Q12809) (assay: primary screen, population patch clamp on CHO cells stably expressing hERG).
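Further: peak tail current of the secondary pulse compared with the same well before compound.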

human ether-à-go-go-related gene (hERG) potassium channel, sequence (Q12809 whole entry, looked up): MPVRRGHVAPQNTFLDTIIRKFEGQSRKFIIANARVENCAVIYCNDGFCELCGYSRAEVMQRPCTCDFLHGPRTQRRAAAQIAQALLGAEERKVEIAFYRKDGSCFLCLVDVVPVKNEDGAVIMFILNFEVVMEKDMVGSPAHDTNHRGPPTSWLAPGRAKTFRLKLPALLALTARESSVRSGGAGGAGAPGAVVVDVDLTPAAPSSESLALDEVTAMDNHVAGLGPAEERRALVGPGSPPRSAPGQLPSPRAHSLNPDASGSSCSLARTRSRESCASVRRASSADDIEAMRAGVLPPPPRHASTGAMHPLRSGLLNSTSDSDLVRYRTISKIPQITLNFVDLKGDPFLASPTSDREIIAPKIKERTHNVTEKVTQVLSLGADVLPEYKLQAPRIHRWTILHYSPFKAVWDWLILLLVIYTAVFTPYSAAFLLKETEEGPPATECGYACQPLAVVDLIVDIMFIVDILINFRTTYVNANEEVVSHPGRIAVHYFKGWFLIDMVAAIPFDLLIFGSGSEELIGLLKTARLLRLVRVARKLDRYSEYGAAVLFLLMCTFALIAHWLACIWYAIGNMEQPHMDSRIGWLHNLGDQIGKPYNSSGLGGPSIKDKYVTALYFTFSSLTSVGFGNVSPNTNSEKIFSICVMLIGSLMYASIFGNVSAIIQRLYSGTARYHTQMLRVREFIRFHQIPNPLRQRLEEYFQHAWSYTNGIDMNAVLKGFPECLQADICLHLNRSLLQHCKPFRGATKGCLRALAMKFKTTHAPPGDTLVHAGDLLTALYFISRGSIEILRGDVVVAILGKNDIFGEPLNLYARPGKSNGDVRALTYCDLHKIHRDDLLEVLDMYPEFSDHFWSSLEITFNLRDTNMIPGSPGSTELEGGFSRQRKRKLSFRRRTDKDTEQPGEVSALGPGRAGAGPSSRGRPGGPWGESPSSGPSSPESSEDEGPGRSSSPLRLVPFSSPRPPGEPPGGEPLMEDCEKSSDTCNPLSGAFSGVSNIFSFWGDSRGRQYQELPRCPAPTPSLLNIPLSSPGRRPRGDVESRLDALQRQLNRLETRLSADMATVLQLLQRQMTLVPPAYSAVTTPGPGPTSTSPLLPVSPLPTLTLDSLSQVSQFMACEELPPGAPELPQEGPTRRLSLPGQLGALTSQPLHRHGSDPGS

Row | SMILES | hERG current change (%, negative = inhibition) at 10uM [%]
1 | COC(=O)CSc1nc(C)c(Oc2ccccc2)c(=O)[nH]1 | 11.6
2 | Cc1ccc(S(=O)(=O)Nc2ccc(Nc3ccccc3)cc2)cc1 | 5.3
3 | O=C(NNC(=O)c1cnccn1)c1ccc(Cl)cc1 | 10.1
4 | C=CCOc1c(Br)cc(CNc2ccc(NC(=O)C(C)C)c(OC)c2)cc1OC | -10.2
5 | CCCc1cc(=O)n2[nH]cc(-c3ccc(Cl)cc3)c2n1 | 1.83
6 | CCCC(=O)Nc1sc(C(=O)OC)c(C)c1C(N)=O | -35.3
7 | CCOC(=O)c1c(C)c(C(=O)Nc2ccc(F)cc2)c(C)n1C | 16.1
8 | CCOc1cc2c(cc1C(C)(C)C)NC(=O)CS2 | 5.5
9 | COc1ccc(NC(=O)c2ccc([N+](=O)[O-])o2)cc1 | 11.1
10 | CN(/N=C/c1ccc(O)cc1O)c1ncc(C(F)(F)F)cc1Cl | 2.45
11 | Cc1c(NS(=O)(=O)c2ccc(N=NN(C)C)cc2)c(=O)n(-c2ccccc2)n1C | -1.97
12 | COc1ccc(CCNC(=O)C2CC3Cn4c(nc5ccccc54)C3N2Cc2ccccc2)cc1 (centres unmarked) | -49.7
13 | COc1cc(OC)c(N2CC34C=CC(O3)C(C(=O)O)C4C2=O)cc1Cl (centres unmarked) | 4.99
14 | CCCC(c1nnnn1CS(=O)(=O)c1ccc(C)cc1)N1CCC(C(N)=O)CC1 (centres unmarked) | -27.7
15 | CC1CCN(CCOc2cc(Cl)ccc2Cl)CC1 | -33.8
16 | O=C(Nc1ccc(Oc2ccccc2)cc1)C1CCCN(c2ncccn2)C1 (centres unmarked) | 4.47
17 | CCOC(=O)C1C(=O)C=C(c2cccs2)CC1c1ccccc1C (centres unmarked) | 3.85
18 | COc1ccc(CNC(=O)C2CCCN(S(=O)(=O)c3ccc4c(c3)C(C)(C)C(=O)N4C)C2)cc1 (centres unmarked) | 18.3
19 | O=C(Nc1ccc2c3c(cccc13)CC2)c1ccc(Br)o1 | 7.21
20 | Cc1ccc2nsnc2c1S(=O)(=O)NCc1ccncc1 | 10.3
21 | CCn1c(CCNC(=O)c2ccc(Cl)cc2)n[nH]c1=S | 17.4
22 | Cc1ccccc1C(=O)NC(=S)NC1CCSC1=O (centres unmarked) | 2.8

Row | SMILES | hERG current change (%, negative = inhibition) at 10uM [%]
23 | O=C(Nc1cccc(Cl)c1)Nc1sccc1-c1nc2ccccc2s1 | 23.8
24 | N#C/C(=C\c1ccc[nH]1)Sc1nc2ccccc2s1 | 10.5
25 | Cc1ccc(NC(=O)CC2SC(=O)N(c3ccccc3)C2=O)cc1 (centres unmarked) | 8.61
26 | Cc1ccc(/C(=N/Nc2ncnc3ccccc23)C(=O)O)cc1 | 24.6
27 | NC(=O)c1ccccc1NC(=O)c1ccoc1 | 11.2
28 | COCC1CCN(C(=O)C2CCC(=O)N(C3CCCC3)C2)CC1 (centres unmarked) | 12.1
29 | Cc1[nH]c(=O)[nH]c(=O)c1S(=O)(=O)Nc1cccc(C(F)(F)F)c1 | 15.7
30 | O=C(C1=C(O)C(=O)N(CC2CCCO2)C1c1ccc(Cl)cc1Cl)c1ccco1 (centres unmarked) | 18.5
31 | Cc1c(C(=O)NC2CCCCC2)oc2ccc(F)cc12 | 17.8
32 | CCCC(=O)C1=C(O)C(C(=O)OC)C(C)(C)CC1=NC (centres unmarked) | 1.82
33 | COc1ccc(NC(=O)c2cnn(-c3ccccc3)c2C)cc1 | -4.11
34 | CCc1nnc(NC(=O)C2Cc3ccccc3CN2S(=O)(=O)CC)s1 (centres unmarked) | -0.0496
35 | O=C1c2ccccc2C(Nc2cccnc2)N1Cc1ccc2c(c1)OCO2 (centres unmarked) | -24.3
36 | CN(CCc1ccccn1)C(=O)CCC1CCCN(C(=O)NC2CCCCC2)C1 (centres unmarked) | 17.4
37 | O=C(N/N=C\c1ccc(COc2ccc([N+](=O)[O-])cc2)o1)c1cccc(Cl)c1 | 4.17
38 | Cn1c(SCc2cc(=O)[nH]c(C(C)(C)C)n2)nnc1C(F)(F)F | 2.84
39 | CCCn1c(N)c(C(c2ccc(C(=O)OC)cc2)N2CCN(c3ccccc3)CC2)c(=O)[nH]c1=O (centres unmarked) | -9.93
40 | CCC(c1nnnn1Cc1ccccc1)N1CCN(c2ccc(OC)cc2)CC1 (centres unmarked) | -14.5
41 | COc1cccc(NC(=O)C2CCN(S(=O)(=O)c3ccc4c(c3)N(C(C)=O)CCO4)CC2)c1 | 8.52
42 | C(=N\N1CCN(Cc2ccccc2)CC1)/c1cccnc1 | -0.236
43 | O=C(Nc1cc(=O)[nH]c2ncnn12)c1ccccc1F | 11
44 | Cc1oc(-c2cccc(Cl)c2)nc1CS(=O)(=O)CC(=O)NCc1ccco1 | -28.2
